Assay results reported in the supplement of paper PMC10369915.
The list shows a part of the results. Cut-off read from the data, not from the text of the source: active = 3.2 or more and inactive = the rest. The signal is at background level for most entries.

Assays:
Experiment in all cases: enrichment score (SH2-bound / input frequency) (ratio); bacterial display of known human phosphotyrosine sites (pTyr-Var adds point mutants) read by sequencing; higher = stronger binding; tyrosines were phosphorylated by kinases first
Conditions in all cases: peptide library: pTyr-Var
[1] = molecular target: SHP2 C-SH2 domain E139D
[2] = molecular target: SHP2 C-SH2 domain wild-type
[3] = molecular target: SHP2 N-SH2 domain L43F
[4] = molecular target: SHP2 N-SH2 domain T42A
[5] = molecular target: SHP2 N-SH2 domain T52S
[6] = molecular target: SHP2 N-SH2 domain wild-type

Measured: enrichment score
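Note: displayed peptides selected on beads carrying the immobilized SH2 domain, with library peptides lacking any tyrosine serving as negative controls.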

VERIGYDFIPT [CBS_Y308_G305R]
inactive: [1] 0.802 | [2] 0.69 | [3] 0.767 | [4] 0.689 | [5] 0.743 | [6] 0.675

FLRKEYGGVNV [CBR3_Y81_L84V]
inactive: [1] 0.554 | [2] 0.612 | [3] 0.564 | [4] 0.518 | [5] 0.544 | [6] 0.642

ELTTCYRKKCS [CCBE1_Y70_C75S]
inactive: [1] 2.1 | [2] 1.62 | [3] 1.56 | [4] 1.66 | [5] 1.76 | [6] 1.34

AKLKDYYIFNK [CCDC42_Y149]
inactive: [1] 0.649 | [2] 0.68 | [3] 0.668 | [4] 0.646 | [5] 0.475 | [6] 0.397

FLRKEYGGLNV [CBR3_Y81]
inactive: [1] 0.62 | [2] 0.63 | [3] 0.628 | [4] 0.483 | [5] 0.692 | [6] 0.817

LWKWKYEELKE [CCDC102B_Y299]
inactive: [1] 1.36 | [2] 1.64 | [3] 1.15 | [4] 1.36 | [5] 1.18 | [6] 1.66

TSQSQYSSFRE [CCDC170_Y323_F324S]
inactive: [1] 0.314 | [2] 0.386 | [3] 0.515 | [4] 0.354 | [5] 0.385 | [6] 0.442

SGGGLYRDMGA [CBX8_Y321]
inactive: [1] 0.581 | [2] 0.709 | [3] 0.709 | [4] 0.541 | [5] 0.53 | [6] 0.567

ELETLYKKAVK [CC2D2A_Y381]
inactive: [1] 0.741 | [2] 0.815 | [3] 0.6 | [4] 0.776 | [5] 0.604 | [6] 0.787

VEGIGYDFIPT [CBS_Y308]
inactive: [1] 0.859 | [2] 0.634 | [3] 0.751 | [4] 0.657 | [5] 0.625 | [6] 0.963

TFWKKYRTFWK [CCDC70_Y125]
inactive: [1] 0.494 | [2] 0.366 | [3] 0.275 | [4] 0.501 | [5] 0.581 | [6] 0.58

KRNSLYSFSDH [CCDC82_Y331_Q327R]
inactive: [1] 0.835 | [2] 0.702 | [3] 0.874 | [4] 0.689 | [5] 0.926 | [6] 0.738

GRLPEYNTPIA [CCDC151_Y542_R545P]
inactive: [1] 0.731 | [2] 0.757 | [3] 0.87 | [4] 0.741 | [5] 0.804 | [6] 0.744

TKLKDYYIFNK [CCDC42_Y149_A144T]
inactive: [1] 1.22 | [2] 1.42 | [3] 1.16 | [4] 1.19 | [5] 1.19 | [6] 1.18

TKLKDYFIFNK [CCDC42_Y149_A144T_YF]
inactive: [1] 1.18 | [2] 1.02 | [3] 0.913 | [4] 0.813 | [5] 0.985 | [6] 1.1

AVNDFYAAKKT [CCDC178_Y422]
inactive: [1] 0.953 | [2] 0.662 | [3] 0.665 | [4] 0.64 | [5] 0.685 | [6] 0.847

AVNNFYAAKKT [CCDC178_Y422_D420N]
inactive: [1] 0.708 | [2] 0.609 | [3] 0.661 | [4] 0.425 | [5] 0.672 | [6] 0.656

TFWKKYCTFWK [CCDC70_Y125_R126C]
inactive: [1] 0.455 | [2] 0.492 | [3] 0.423 | [4] 0.613 | [5] 0.567 | [6] 0.707

RKQQLYIAMEE [CCDC39_Y593_T594I]
inactive: [1] 1.03 | [2] 0.912 | [3] 0.648 | [4] 0.698 | [5] 0.609 | [6] 0.481
